In the assay the target is T1, Human HVEM extracellular domain, fused to mouse IgG1 Fc (human; mouse, UniProt Q92956 39-202).
T1 construct: extracellular domain; also called human HVEM-mFc; herpesvirus entry mediator; not shown: mouse IgG1 Fc
T1 sequence (looked up): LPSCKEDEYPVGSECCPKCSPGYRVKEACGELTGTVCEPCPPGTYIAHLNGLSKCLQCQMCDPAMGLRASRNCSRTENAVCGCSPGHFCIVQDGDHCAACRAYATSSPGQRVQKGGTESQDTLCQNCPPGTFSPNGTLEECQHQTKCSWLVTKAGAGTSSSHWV
Kind of assay: SPR (Biacore T200), human BTLA extracellular domain amine-coupled to the chip, HVEM-mFc injected before and after a saturating antibody injection, 37 °C.

B1: monomeric soluble human BTLA extracellular domain (BTLA […]) (receptor)
chain: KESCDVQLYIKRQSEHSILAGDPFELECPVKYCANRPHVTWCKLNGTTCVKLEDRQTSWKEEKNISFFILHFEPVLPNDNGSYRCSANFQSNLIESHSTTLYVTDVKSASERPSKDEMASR
notes: monomeric; also called hBTLA; monomeric BTLA
Take B1: the binding result is “binds”.

Source of the values: patent publication US20220177589A1 (OXFORD UNIVERSITY INNOVATION, published 2022).
